Experimental data taken from PMC11141941.
Positions count from the first letter of the chain named. Results are given in words; binding and its absence hold for the method and conditions named. In cells and extracts the contact can be indirect. Some binding calls cover weakened binding; strength is not graded here. For some assays here: Tags and fused reporters may be left off the sequences shown. One block for each molecule: values may come before it.

By UniProt entry, the sequences of proteins in these tests, tags left out.
UniProt P16671: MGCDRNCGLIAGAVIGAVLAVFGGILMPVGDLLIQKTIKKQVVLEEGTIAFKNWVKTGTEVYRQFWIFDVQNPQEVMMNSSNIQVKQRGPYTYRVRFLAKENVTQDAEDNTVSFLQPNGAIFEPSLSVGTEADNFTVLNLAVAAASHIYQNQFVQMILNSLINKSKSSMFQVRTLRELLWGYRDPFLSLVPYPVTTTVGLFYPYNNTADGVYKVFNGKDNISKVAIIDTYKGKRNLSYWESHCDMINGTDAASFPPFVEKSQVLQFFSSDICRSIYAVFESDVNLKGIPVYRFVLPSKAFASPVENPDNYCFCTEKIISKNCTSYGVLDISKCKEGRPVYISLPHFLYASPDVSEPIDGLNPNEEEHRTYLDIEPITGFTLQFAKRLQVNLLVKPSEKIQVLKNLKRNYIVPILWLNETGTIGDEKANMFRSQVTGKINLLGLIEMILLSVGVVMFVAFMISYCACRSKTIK
UniProt Q08857: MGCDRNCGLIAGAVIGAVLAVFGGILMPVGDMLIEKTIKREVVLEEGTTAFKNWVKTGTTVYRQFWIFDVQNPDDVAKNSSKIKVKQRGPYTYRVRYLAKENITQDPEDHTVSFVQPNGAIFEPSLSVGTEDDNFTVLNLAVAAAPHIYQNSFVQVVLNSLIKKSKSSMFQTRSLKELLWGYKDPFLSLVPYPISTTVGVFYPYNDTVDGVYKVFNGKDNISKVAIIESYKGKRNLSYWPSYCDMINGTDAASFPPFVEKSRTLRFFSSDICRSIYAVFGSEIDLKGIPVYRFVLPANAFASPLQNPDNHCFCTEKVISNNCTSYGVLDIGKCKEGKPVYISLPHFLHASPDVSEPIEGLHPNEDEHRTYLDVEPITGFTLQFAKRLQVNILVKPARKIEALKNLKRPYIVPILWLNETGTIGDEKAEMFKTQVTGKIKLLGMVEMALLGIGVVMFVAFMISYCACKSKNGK

Key:
[1] = biological target: T1, Endospanin 1 (Endo1), endogenous mouse (mouse (endogenous in adipose tissue and liver)) (UniProt O89013); assay: co-IP; endogenous proteins; mouse liver lysate (Supplemental Figure 6)
T1 sequence: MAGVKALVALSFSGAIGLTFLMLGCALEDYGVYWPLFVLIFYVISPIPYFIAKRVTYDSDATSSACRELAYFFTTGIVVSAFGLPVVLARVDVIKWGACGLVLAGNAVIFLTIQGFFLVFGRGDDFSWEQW

[2] = biological target: T1, Endospanin 1 (Endo1), endogenous mouse (mouse (endogenous in adipose tissue and liver)); assay: co-IP; endogenous proteins; lysates of visceral, gonadal and s.c. adipose tissue of WT mice; immunoprecipitation with Endo1 or CD36 antibodies; TEM buffer with 0.5% Triton X-100, 4°C; Endo1-KO tissues as negative controls
[3] = biological target: T2, 6myc-tagged Endo1 (Endospanin 1) (UniProt O15243); assay: co-IP; HEK293T cells coexpressing 6Myc-Endo1 and Flag-CD36; lysis in TEM buffer (25 mM Tris-HCl pH 7.5, 2 mM EDTA, 10 mM MgCl2) with 0.5% Triton X-100; immunoprecipitation overnight at 4°C, Protein G Sepharose; immunoblot; both orientations; cells with only one construct as controls
T2 sequence: T1 sequence with Y42H, V43A, Y49H, L84F, V87I, D92A, V119I

[4] = biological target: Flag-tagged CD36 (FLAG-huCD36) (human) (UniProt P16671); assay: as above
[5] = biological target: CD36, endogenous mouse (mouse (endogenous in adipose tissue and liver)) (UniProt Q08857); assay: co-IP; endogenous proteins; lysates of visceral, gonadal and s.c. adipose tissue of WT mice; immunoprecipitation with Endo1 or CD36 antibodies; TEM buffer with 0.5% Triton X-100, 4°C; Endo1-KO tissues as negative controls

binding [1]: no binding (condition: in liver lysate)
binding [2]: binds
Molecule: CD36, endogenous mouse (from UniProt Q08857 1-472)

binding [3]: binds
Molecule: Flag-tagged CD36 (FLAG-huCD36) (from UniProt P16671 1-472)

binding [4]: binds
B1: 6myc-tagged Endo1 (Endospanin 1) (protein, UniProt O15243 1-131)
chain: T1 sequence with Y42H, V43A, Y49H, L84F, V87I, D92A, V119I

binding [5]: binds
B2: Endospanin 1 (Endo1), endogenous mouse (protein, UniProt O89013 1-131)
chain: T1 sequence
